Screen size: about 39,000 compounds; about 220 (0.56%) showed activity. This is one part of the list.

Experimental findings from the supplement of paper PMC9446081 are described below.
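Further: static incubation at 37 °C against the wild-type strain, values averaged over two biological replicates.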

The assay deals with Escherichia coli K-12 BW25113. Briefly: relative growth (OD600 normalised to plate interquartile mean) (fraction); higher = less growth inhibition, active = 0.2 or less. As to conditions: 50 µM; LB; incubation time: overnight (16-24 h).
On to `CCCN(C)C[C@@H]1OCCCC[C@@H](C)Oc2ccc(NS(=O)(=O)c3ccc(Cl)cc3)cc2C(=O)N([C@H](C)CO)C[C@@H]1C`, for which the relative growth was inactive: 0.989. As to `C[C@@H]1CN([C@H](C)CO)C(=O)c2cc(NC(=O)Nc3ccc4c(c3)OCO4)ccc2O[C@@H]1CN(C)Cc1ccc(Oc2ccccc2)cc1`, the relative growth is inactive: 1.01. As for `O=C1C2C[C@H]3C=C[C@]2(CN1C1CC1)O3` (stereo partly specified), the figure is inactive: 0.987. As for `CC(C)CC#Cc1ccc2c(c1)O[C@@H](CN(C)C(=O)C1CCOCC1)[C@@H](C)CN([C@@H](C)CO)S2(=O)=O`, the figure is inactive: 0.987; as for `CC(=O)Nc1ccc(S(=O)(=O)Nc2onc(C)c2C)cc1`, inactive: 0.866.

With `C[C@H]1CN([C@@H](C)CO)C(=O)c2cc(NC(=O)NC3CCCCC3)ccc2O[C@H]1CN(C)C(=O)Nc1ccc(C(F)(F)F)cc1`, the relative growth is inactive: 0.984.

For `Cc1noc(C)c1S(=O)(=O)Nc1cccc2c1O[C@@H](CN(C)S(=O)(=O)c1ccc(F)cc1)[C@@H](C)CN([C@H](C)CO)C2=O`, the relative growth was inactive: 0.987. For the compound `CO[C@@H]1CN(C)C(=O)c2ccc(NS(=O)(=O)CC(F)(F)F)cc2OC[C@@H](C)N(C(=O)c2ccc3c(c2)OCO3)C[C@@H]1C`, the relative growth is inactive: 0.945. As for `Cc1ccc(S(=O)(=O)N[C@@H]2CC[C@H](CC(=O)NCc3ccc(Cl)c(Cl)c3)O[C@H]2CO)cc1`, the relative growth is inactive: 0.993. The figure for `C[C@H](CO)N1C[C@H](C)[C@@H](CN(C)S(C)(=O)=O)Oc2ccc(NC(=O)CCN3CCOCC3)cc2C1=O` is inactive: 1.01.

Turning to `C[C@@H]1CCCCO[C@H](CN(C)C(=O)Nc2ccccc2)[C@@H](C)CN([C@@H](C)CO)C(=O)c2cc(NC(=O)Cc3ccccc3)ccc2O1`, the relative growth is inactive: 1. As for `C[C@@H]1CN([C@@H](C)CO)S(=O)(=O)c2ccc(-c3cncnc3)cc2O[C@H]1CN(C)C(=O)CN(C)C`, the relative growth was inactive: 0.997. With `C[C@H]1CN([C@@H](C)CO)C(=O)c2cccc(NC(=O)C3CCOCC3)c2O[C@H]1CN(C)Cc1ccccc1`, the relative growth is inactive: 0.962. Regarding `C[C@@H]1CN([C@H](C)CO)C(=O)c2cc(NC(=O)Nc3ccc(C(F)(F)F)cc3)ccc2O[C@H]1CN(C)Cc1ccc(Cl)c(Cl)c1`, the relative growth was inactive: 0.984. As for `CCCCCCCCCCCCCCCC(=O)OCC=C(C)C=CC=C(C)C=CC1=C(C)CCCC1(C)C`, the figure is inactive: 0.858; as for `Cc1ccc(S(=O)(=O)Nc2ccc3c(c2)C(=O)N([C@@H](C)CO)C[C@@H](C)[C@H](CN(C)C(=O)NC(C)C)O3)cc1`, inactive: 1.02; as for `C[C@@H]1CCCCO[C@H](CN(C)Cc2ccc(C(F)(F)F)cc2)[C@H](C)CN([C@@H](C)CO)C(=O)c2cc(NS(=O)(=O)c3ccccc3)ccc2O1`, inactive: 1.03. On to `CCS(=O)(=O)Nc1ccc2c(c1)C(=O)N(C)C[C@H](OC)[C@H](C)CN(C(=O)c1ccc3c(c1)OCO3)[C@@H](C)CO2`, for which the relative growth is inactive: 0.973.

Consider `CCS(=O)(=O)N1C[C@]2(C1)CN([C@@H](CO)c1c2c2ccc(cc2n1C)OC)C(=O)CN1CCOCC1`, for which the relative growth is inactive: 0.986. `C[C@H](CO)N1C[C@H](C)[C@H](CN(C)C(=O)Cc2ccccc2)OCCCC[C@H](C)Oc2ccc(NC(=O)Nc3ccc4c(c3)OCO4)cc2C1=O`: the relative growth is inactive: 0.97.

With `C[C@@H]1CN([C@@H](C)CO)C(=O)c2cccc(NC(=O)NC3CCCCC3)c2O[C@H]1CN(C)Cc1ccc(C(F)(F)F)cc1`, the relative growth is inactive: 0.806. As for `CCCNC(=O)N1C[C@H](O)COC[C@@H]2O[C@H](CC(=O)NCc3ccncn3)CC[C@H]21`, the figure is inactive: 1.01.

In the case of `C[C@H]1CN([C@@H](C)CO)C(=O)CCCn2cc(nn2)CO[C@H]1CN(C)C(=O)Nc1ccc(N2CCN(C)CC2)cc1`, the relative growth was inactive: 0.975. As for `COc1ccc(S(=O)(=O)N(C)C[C@@H]2Oc3ncc(C#Cc4cccc(F)c4)cc3C(=O)N([C@H](C)CO)C[C@@H]2C)cc1`, the figure is inactive: 0.979; as for `CC(C)NC(=O)Nc1cccc2c1O[C@H](CN(C)S(=O)(=O)c1cccs1)[C@H](C)CN([C@@H](C)CO)C2=O`, inactive: 1.02; as for `C[C@@H]1CN([C@@H](C)CO)C(=O)CCCn2cc(nn2)CO[C@@H]1CN(C)S(=O)(=O)c1ccc(-c2ccccc2)cc1`, inactive: 1.01. The figure for `O=C(C[C@H]1CC[C@@H](NC(=O)c2cnccn2)[C@H](CO)O1)NCc1ccccc1F` is inactive: 1.

For the compound `CC(C)NC(=O)N(C)C[C@@H]1Oc2c(NS(=O)(=O)c3cn(C)cn3)cccc2C(=O)N([C@H](C)CO)C[C@H]1C`, the relative growth is inactive: 1.03.

For `C[C@H]1CCCCO[C@@H](CN(C)Cc2ccc(C(F)(F)F)cc2)[C@@H](C)CN([C@@H](C)CO)C(=O)c2cc(NS(=O)(=O)c3ccc(F)cc3)ccc2O1`, the relative growth is inactive: 1.02. As for `Cc1noc(C)c1NC(=O)N(C)C[C@@H]1OCCCC[C@H](C)Oc2ccc(NC(=O)NC3CCCCC3)cc2C(=O)N([C@H](C)CO)C[C@H]1C`, the figure is inactive: 0.989; as for `COc1ccc(S(=O)(=O)N(C)C[C@H]2Oc3ccc(NS(=O)(=O)c4c(C)noc4C)cc3CC(=O)N([C@@H](C)CO)C[C@@H]2C)cc1`, inactive: 1.01; as for `C[C@H]1CN([C@@H](C)CO)C(=O)CCCn2cc(nn2)CO[C@H]1CN(C)C(=O)c1cc(-c2ccccc2)on1`, inactive: 1.01.

Consider `CC(c1cc2ccccc2s1)N(O)C(N)=O` (stereo unspecified), for which the relative growth is inactive: 1.07. The figure for `C[C@@H]1CCCCO[C@@H](CN(C)S(C)(=O)=O)[C@@H](C)CN([C@H](C)CO)C(=O)c2cc(NS(=O)(=O)c3cccs3)ccc2O1` is inactive: 1.02; for `COc1ccc(S(=O)(=O)Nc2ccc3c(c2)C(=O)N([C@H](C)CO)C[C@@H](C)[C@@H](CN(C)C(=O)C2CCCCC2)OCCCC[C@H](C)O3)cc1` it is inactive: 0.994; for `CCc1cccc2cc[nH]c12` it is inactive: 0.997. The figure for `Cc1noc(C)c1NC(=O)Nc1ccc2c(c1)C(=O)N([C@H](C)CO)C[C@H](C)[C@@H](CN(C)CC1CCCCC1)OCCCC[C@@H](C)O2` is inactive: 1.01. As for `O=C(C[C@H]1C[C@@H]2c3cc(NS(=O)(=O)c4ccc(F)cc4)ccc3O[C@@H]2[C@@H](CO)O1)NCCc1ccccc1`, the figure is inactive: 1; as for `COc1ccc(NC(=O)N(C)C[C@@H]2OCc3ccccc3-c3c(n(C)c4ccccc34)C(=O)N([C@@H](C)CO)C[C@@H]2C)c(OC)c1`, inactive: 0.977. With `Cc1noc(C)c1S(=O)(=O)N(C)C[C@H]1Oc2ccc(NC(=O)C3CCCCC3)cc2CC(=O)N([C@H](C)CO)C[C@H]1C`, the relative growth was inactive: 1.01. As to `Cc1noc(C)c1S(=O)(=O)N(C)C[C@@H]1Oc2ccc(N(C)C)cc2CC(=O)N([C@@H](C)CO)C[C@H]1C`, the relative growth is inactive: 0.999.

Consider `NC1CCSCC1`, for which the relative growth was inactive: 1.02. On to `CC1(C)OC2CC3C4CCC5=CC(=O)C=CC5(C)C4C(O)CC3(C)C2(C(=O)CO)O1` (stereo unspecified), for which the relative growth was inactive: 1.05. The figure for `CC(C)NC(=O)Nc1ccc2c(c1)C(=O)N([C@@H](C)CO)C[C@H](C)[C@@H](CN(C)Cc1ccc3c(c1)OCO3)O2` is inactive: 1; for `CC(C)CC#Cc1cnc2c(c1)C(=O)N([C@@H](C)CO)C[C@H](C)[C@@H](CN(C)C(=O)c1ccc3c(c1)OCO3)O2` it is inactive: 1.01. As for `C[C@H](CO)N1C[C@H](C)[C@@H](CN(C)Cc2ccc(C(=O)O)cc2)Oc2ccc(NS(=O)(=O)c3cn(C)cn3)cc2C1=O`, the figure is inactive: 1.01; as for `C[C@H]1CN([C@@H](C)CO)C(=O)Cc2cc(NC(=O)Cn3cnnn3)ccc2O[C@H]1CN(C)Cc1ccncc1`, inactive: 0.962.

`COc1ccccc1C#Cc1cnc2c(c1)C(=O)N([C@@H](C)CO)C[C@H](C)[C@@H](CN(C)S(=O)(=O)c1cn(C)cn1)O2`: the relative growth was inactive: 0.961. Take `N[C@@H](COCc1ccccc1)C(=O)O`: the relative growth is inactive: 1.01. As to `C[C@@H]1CCCCO[C@H](CN(C)Cc2ccccc2)[C@H](C)CN([C@@H](C)CO)C(=O)c2cc(NS(=O)(=O)c3ccccc3)ccc2O1`, the relative growth is inactive: 0.988.

Consider `Cc1noc(C)c1NC(=O)N(C)C[C@@H]1Oc2ncc(Br)cc2C(=O)N([C@@H](C)CO)C[C@@H]1C`, for which the relative growth was inactive: 0.988.

`Cc1nnn2c1COC[C@H](CNCC(C)C)C2`: the relative growth was inactive: 1.02. Consider `COc1ccc(CN(C)C[C@@H]2OCCCC[C@@H](C)Oc3ccc(NC(=O)Nc4ccc(OC)cc4)cc3C(=O)N([C@H](C)CO)C[C@H]2C)cc1`, for which the relative growth is inactive: 0.976.

Turning to `C[C@@H]1CN([C@@H](C)CO)C(=O)Cc2cc(NC(=O)Cn3cnnn3)ccc2O[C@H]1CN(C)Cc1ccc2c(c1)OCO2`, the relative growth is inactive: 0.959.

Regarding `C[C@H](CO)N1C[C@H](C)[C@H](CN(C)C(=O)Nc2ccc(C(F)(F)F)cc2)Oc2c(NC(=O)Nc3ccc(F)cc3)cccc2C1=O`, the relative growth is inactive: 1. Take `CC(C)NC(=O)N(C)C[C@@H]1Oc2ccc(NC(=O)CCN3CCOCC3)cc2CC(=O)N([C@@H](C)CO)C[C@@H]1C`: the relative growth is inactive: 1.01. Regarding `O=C1CO[C@H]2CN(S(=O)(=O)c3ccccc3)C[C@@H]2N1`, the relative growth was inactive: 1.01. The figure for `COc1ccc(NC(=O)N(C)C[C@@H]2OCCCC[C@H](C)Oc3ccc(NC(=O)NC4CCCCC4)cc3C(=O)N([C@H](C)CO)C[C@@H]2C)cc1` is inactive: 1.04; for `CO[C@@H](C(=O)N(C)C[C@H]1OCc2ccccc2-c2c(n(C)c3ccccc23)C(=O)N([C@@H](C)CO)C[C@H]1C)c1ccccc1` it is inactive: 0.995; for `Cc1ccc(O)c(-c2cc(-c3ccc(C(C)(C)C)cc3)[nH]n2)c1` it is inactive: 1.02.

`C[C@H]1CCCCO[C@@H](CN(C)CC2CCCCC2)[C@@H](C)CN([C@@H](C)CO)C(=O)c2cc(NC(=O)c3ccncc3)ccc2O1`: the relative growth was inactive: 0.936.
